Scores whose standard error is large were omitted. Two further conditions of the source, in which the scores hardly spread, are not listed. Names with del lack the residues named; names with ins carry added residues between the positions named. For some assays here: The data file names ogerin without a concentration.
B1: GPR68, Q15743 (parent)
chain: MGNITADNSSMSCTIDHTIHQTLAPVVYVTVLVVGFPANCLSLYFGYLQIKARNELGVYLCNLTVADLFYICSLPFWLQYVLQHDNWSHGDLSCQVCGILLYENIYISVGFLCCISVDRYLAVAHPFRFHQFRTLKAAVGVSVVIWAKELLTSIYFLMHEEVIEDENQHRVCFEHYPIQAWQRAINYYRFLVGFLFPICLLLASYQGILRAVRRSHGTQKSRKDQIQRLVLSTVVIFLACFLPYHVLLLVRSVWEASCDFAKGVFNAYHFSLLLTSFNCVADPVLYCFVSETTHRDLARLRGACLAFLTCSRTGRAREAYPLGAPEASGKSGAQGEEPELLTKLHPAFQTPNSPGSGGFPTGRLA

Assays:
[1] = variants of: B1; experiment: cAMP reporter score (Enrich2 score, wild type = 0); higher = more signal; HEK293T, FACS bins
[2] = variants of: B1; experiment: surface expression score (Enrich2 score, wild type = 0); higher = more signal; HEK293T, FACS bins

Variant	cAMP reporter score ([1]; pH 5.5)	cAMP reporter score ([1]; pH 6)	cAMP reporter score ([1]; pH 6, modulator: ogerin)	cAMP reporter score ([1]; pH 6.5, modulator: ogerin)	surface expression score [2]
F132K	-1.44	-1.76	-1.27	-1.62	-2
F132L	-0.369	-0.511	-0.091	-0.198	-0.572
F132M	0.816	-1.19	0.438	-0.648	-0.188
F132N	-1.69	-2.95	-1.33	-0.988	
F132P	-0.712	-1.6		-0.111	-1.3
F132Q	-1.03	-0.439	-1.21	-0.449	
F132R	-0.843	-1.06	-0.599	-1.45	-2.22
F132S	-1.06	-0.353	-0.985	-1.2	-1.45
F132T	-0.864	-0.609	-0.184	-0.328	
F132V	0.163	-0.736	0.221	0.252	-0.625
F132W	-0.077	-0.794	0.062	-0.887	-0.665
F132_R133del	-1.52	-1.6	-0.984	-0.78	-2.92
R133A	-1.7	-2.05	-1.43	-1.32	-2.35
R133C	-2.12	-0.601	-1.67	-1.39	-2.35
R133D	-1.72	-1.17			-1.98
R133E	-1.56		-2.98	-1.8	-1.34

Variant	cAMP reporter score ([1]; pH 5.5)	cAMP reporter score ([1]; pH 6)	cAMP reporter score ([1]; pH 6, modulator: ogerin)	cAMP reporter score ([1]; pH 6.5, modulator: ogerin)	surface expression score [2]
R133F	-1.59	-0.853	-1.89	-1.03	-1.98
R133G	-1.86	-1.57	-2.51	-2.16	-1.8
R133H	-0.028	-1.06	-0.612	-0.445	-0.374
R133I	-0.766	-0.987	-1.44	-1.34	-2.72
R133K	0.001	-0.915	-0.278	-1.11	-0.337
R133L	-1.66	-1.96	-1.67	-1.56	-1.8
R133M	-1.17	0.282		-0.797	-0.88
R133N	-1.87	-0.647	-1.66	-1.41	-2.58
R133P	-0.609			-1	-2.49
R133Q	-1.14	-0.502	-1.22	-1.03	-0.896
R133S	-1.22	-0.983		-1.23	-1.99
R133T	-2.27	0.747	-0.615	-1.18	
R133V	-1.43	-1.36	-2.09	-0.556	-2.65
R133W	-1	-0.28	-1.11	-0.96	-1.21
R133Y	-0.568		-3.13	-1.23	
R133_T134del	-1.27	-0.73	-1.66	-1.09	-2.19
